Assay results: ChEMBL document CHEMBL1157539, “Thousands of chemical starting points for antimalarial lead identification” (Nature, 2010)
The full ranking holds about 13,000 compounds; the median of “IFI” is about 4, and the highest 2% start at about 17. The list shows a part of the results.

test: GSK_TCMDC: Inhibition Frequency Index (IFI). The number of non-kinase HTS assays where a compound showed > 50 % inhibition, expressed as a percentage of the number of such assays in which the compound was tested (-0 is zero); type: functional

First: Cc1sc(NC(=O)Cc2cccc(C(F)(F)F)c2)nc1-c1cccc(Cl)c1
Second: O=C(Nc1cccc(-c2ccc(-c3nc4cc(C(F)(F)F)ccc4[nH]3)cc2)c1)c1csnn1
The IFI of the first is higher: 3.7% for the first, 3.6% for the second.

Compared with CN1CCN(CC(=O)Nc2cccc(-c3ccc(-c4nc5cc(F)ccc5[nH]4)s3)c2)CC1, CC(CN1CCN(C)CC1)C(=O)Nc1ccc(-c2cccc(-c3nc4cc(F)ccc4[nH]3)c2)cc1 (stereo not drawn) is lower in IFI: 4.5% for the first, 2.78% for the second.

Going from c1ccc(Oc2ccc(Nc3ccnc4cc(-c5csc(CNCCN6CCOCC6)n5)ccc34)cc2)cc1 to c1ccc(Oc2ccc(Nc3ccnc4cc(-c5cccc(CNCCN6CCOCC6)c5)ccc34)cc2)cc1, the IFI rises from 2.24% to 5.88%.

Going from COc1ccc(CC(=O)Nc2ccc(Nc3nc(C)cc(N4CCCC4)n3)cc2)cc1 to COc1ccc(NC(=O)[C@H](Cc2ccccc2)Nc2cc(C)nc(NCCc3ccccn3)n2)cc1, the IFI falls from 15.4% to 9.09%.

First: Cc1ccc2c(c1)NCC21CCN(C[C@@H](O)C2CCN(c3cc(C#N)ccn3)CC2)CC1C (stereo partly drawn)
Second: N#Cc1cccc(C(=O)NC2CCN(c3ccnc(Nc4ccc(F)cc4)n3)C2)c1 (stereo not drawn)
The IFI of the first is lower: -0% for the first, 1.54% for the second.

Compared with CN1CCC(N(Cc2ccc(-c3ccc(Cl)cc3)cc2)C(=O)Cn2c(CCc3cccc(F)c3F)cc(=O)c3ccccc32)CC1, CCN1CCC(N(Cc2ccc(-c3ccc(C(F)(F)F)cc3)o2)C(=O)Cn2c(CCc3cccc(F)c3F)nc(=O)c3ccccc32)CC1 is lower in IFI: 14.4% for the first, 6.29% for the second.

Compared with COc1cc(NC(=O)N2CCOC(CCN3CCC(c4ccccc4)CC3)(c3ccc(Cl)c(Cl)c3)C2)cc(OC)c1 (stereo not drawn), O=c1cnc2ccc(F)cc2n1CCN1CCC(NCc2cc(-c3ccccc3)cs2)CC1 is higher in IFI: 6.8% for the first, 10.3% for the second.

First: CCc1c(CCNCCCCCCNC(C)(C)Cc2ccc3c(c2CC)OCO3)ccc(OC)c1OC
Second: CC(C)(Cc1ccc(Cl)cc1)NCCCCCCNCCc1ccc(O)c(O)c1
The IFI of the first is lower: 6.38% for the first, 8.22% for the second.

First: O=C(CN1CCN(S(=O)(=O)C=Cc2ccccc2)CC1)Nc1cc(C(F)(F)F)ccc1Cl
Second: O=C(C=Cc1ccc(Cl)c(Cl)c1)NCCCCCN1CCCC(CCCNC(=O)/C=C/c2ccccc2)C1 (stereo not drawn)
The IFI of the first is lower: 0.81% for the first, 7.41% for the second.

Compared with O=C(Nc1ccc(Cl)cc1)c1ccc(S(=O)(=O)NCC2CCN(CC3CCCCC3)CC2)cc1, CNC(=O)c1ccc2nc(C3CC3)n(CC3CCN(S(=O)(=O)c4cccc(Cl)c4)CC3)c2c1 is lower in IFI: 9.18% for the first, 0.74% for the second.

First: CN1CCCN(Cc2cccc(-c3cccc(NC(=O)c4cccc(C#N)c4)c3)c2)CC1
Second: N#Cc1ccc(CN2CCC(Oc3ccc(NC(=O)c4ccccc4)cc3Cl)CC2)cc1
The IFI of the first is lower: 3.81% for the first, 7.81% for the second.

Going from CN1CCc2ccc(NC(=O)Nc3ccc(Cl)c(Cl)c3)cc2C1 to Cn1nc(C(F)(F)F)c(-c2ccc(F)cc2)c1NC(=O)Nc1ccc(F)cc1, the IFI rises from 1.72% to 12.5%.

Compared with CC1(C)C=C(c2ccncc2)c2cc(Cl)ccc2O1, Cc1cc(=NN=Cc2ccc(Cl)cc2)c2ccccc2[nH]1 is lower in IFI: 2.82% for the first, 0.7% for the second.

Going from COc1cc(CCCON2C(=N)N=C(N)NC2(C)C)cc(OC)c1OC to CC1(C)N=C(N)N=C(N)N1OCCc1ccc2ccccc2c1, the IFI rises from 2.17% to 4.26%.

First: O=S(=O)(c1cc2ccccc2s1)N(CCC(O)(C(F)(F)F)C(F)(F)F)Cc1cccc(O)c1
Second: O=C(Nc1ccc(C(F)(F)F)cc1)c1cc(Cl)cc2nc(C(F)(F)F)[nH]c12
The IFI of the first is lower: 1.45% for the first, 23.4% for the second.

First: CCCc1cc(Cc2cnc(N)nc2N)cc2c1OC(C)(C)C2
Second: CCCc1cc(Cc2cnc(N)nc2N)c2cccnc2c1OC
The IFI of the first is higher: 4.96% for the first, 0.81% for the second.

Compared with Cc1cc(C)c(O)c(-c2cc(C(=O)Nc3ccc(S(=O)(=O)N4CC(C)OC(C)C4)cc3)[nH]n2)c1 (stereo not drawn), Cc1cc(-c2ccc(NC(=O)c3coc4ccc(N5CC(C)N(C)C(C)C5)cc34)cc2C)cc(C)n1 (stereo not drawn) is lower in IFI: 6.06% for the first, 3.68% for the second.

First: CC[C@H](C)CNC(=O)c1cncc(-c2ccc(CNC3CCCC3)cc2)c1
Second: CC[C@H](C)CNC(=O)c1cncc(-c2ccc(CN3CCC(N4CCCC4)CC3)cc2)c1
The IFI of the first is lower: 1.61% for the first, 4.69% for the second.

Compared with COc1ccc(Cn2c(Nc3cccc(C(F)(F)F)c3)nc3cc(C(=O)NC4CC4)cnc32)cc1Cl, COc1ccc(Cn2c(Nc3cccc(C(F)(F)F)c3)nc3cc(C(=O)NCCCN(C)C)ccc32)cc1Cl is lower in IFI: 2.24% for the first, 2.14% for the second.

Going from O=C(Nc1cccc(-c2nn3ncccc3c2-c2ccnc(Nc3cccc(C(F)(F)F)c3)n2)c1)c1c(F)cccc1F to FC(F)(F)c1ccc2[nH]c(-c3ccc(-c4cccc(CNCc5cnn(-c6ccccc6)n5)c4)s3)nc2c1, the IFI rises from 4.35% to 15.9%.

Going from COc1cccc(C=NN=c2cc(C)[nH]c3ccccc23)c1 to COc1ccc2nc(C)cc(NC3Cc4ccccc4C3)c2c1, the IFI falls from 1.41% to -0%.

First: Cc1cc(C)c(NC(=O)NC2CCN(CCCCCNC(=O)/C=C/c3ccc(Cl)c(Cl)c3)C2)c(C)c1 (stereo not drawn)
Second: CS(=O)(=O)Nc1ccc2[nH]cc(C3CCN(CC4CCC(NC(=O)/C=C/c5ccc(Cl)c(Cl)c5)CC4)CC3)c2n1 (stereo not drawn)
The IFI of the first is lower: 2.22% for the first, 2.99% for the second.

Going from Cc1ccc(C(CC(=O)Nc2nccs2)c2ccc(OC(C)C)cc2)cc1 (stereo not drawn) to Cc1cccc2nc(-c3ccc(-c4cccc(NC(=O)C(C)CN(C)C)c4)s3)[nH]c12 (stereo not drawn), the IFI falls from 3.39% to 2.7%.

First: C[C@H](Cc1ccc(OCCCCOc2ccc(C[C@@H](C)NC[C@H](O)c3cccc(Cl)c3)cc2)cc1)NC[C@H](O)c1cccc(Cl)c1
Second: CCN(CC)CCOc1ccc(N(Cc2ccc(C(C)(C)C)cc2)C(=O)c2ccc(Cc3ccccc3)cc2)cc1OC
The IFI of the first is higher: 11.6% for the first, 5.84% for the second.

CC(=O)c1ccc(N2C(=O)C3C(Cc4ccc(OC(C)(C)C)cc4)NC4(C(=O)N(Cc5ccc(C(C)(C)C)cc5)c5ccccc54)C3C2=O)cc1 (stereo not drawn) and C[C@H](NC(=O)c1cc(-c2ccc(C(C)(C)C)cc2)no1)C(=O)O.C[C@H](NC(=O)c1conc1-c1ccc(C(C)(C)C)cc1)C(=O)O are the same in IFI: 0% for the first, 0% for the second.

Going from FC(F)(F)c1ccc2[nH]c(-c3ccc(-c4cccc(CNCCc5ccncc5)c4)s3)nc2c1 to Cc1nnsc1C(=O)Nc1ccc(-c2cccc(-c3nc4cc(F)ccc4[nH]3)c2)cc1, the IFI falls from 8% to 5.5%.

First: Clc1ccc(Sc2cncnc2N2CCOCC2)cc1
Second: CS(=O)(=O)c1ccc2[nH]c(-c3cc(-c4ccc(OCCN5CCOCC5)cc4)cnc3N)nc2c1
The IFI of the first is higher: 1.49% for the first, -0% for the second.

Going from COc1ccc(C(=O)Nc2nonc2-c2ccc(OC)c(OC)c2)cc1Cl to CCCOc1ccc(-c2nonc2NC(=O)c2ccccc2OC)cc1OCCC, the IFI falls from 4.17% to 2.44%.

First: CCOc1cc2ncnc(Nc3ccc(OCc4ccccc4F)c(Cl)c3)c2cc1OCC
Second: COc1ccc2nc(C)cc(Nc3ccc(Oc4ccc(Cl)c5ccccc45)c(Cl)c3)c2c1
The IFI of the first is lower: -0% for the first, 6.92% for the second.

First: COCCN1CCN(Cc2cccc(-c3ccc(-c4nc5ccccc5[nH]4)cc3)c2)CC1
Second: c1ccc(C(c2cccs2)N2CCN(Cc3ccc(OCCCN4CCCCC4)cc3)CC2)cc1 (stereo not drawn)
The IFI of the first is lower: 5.88% for the first, 10.7% for the second.

Going from CN(C)c1ccc(CN2CCC(CNC(=O)c3cc(-c4ccccc4Cl)cs3)C2)cc1 (stereo not drawn) to O=C(Nc1ccc(OC2CCN(Cc3ccc(F)cc3)C2)c(Cl)c1)c1ccco1 (stereo not drawn), the IFI falls from 6.12% to 1.64%.

Compared with N#Cc1ccc2c(c1)CCN(CCC1CCC(NC(=O)c3cc4ccc(Br)cc4[nH]3)CC1)C2 (stereo not drawn), CC(Oc1c(C2CCN(CCCCNC(=O)c3ccc(-c4ccc(Cl)cc4)cc3)CC2)ccc2c1CCCC2)C(N)=O (stereo not drawn) is higher in IFI: 4.41% for the first, 12.3% for the second.

Going from CCCCNc1cc(NCCCC)c2c(n1)[nH]c1ccccc12 to CCCCCCCc1[nH]c2ccccc2c(=O)c1C, the IFI falls from 19.4% to 10.1%.

Compared with COc1cc(NC(=O)c2c(-c3c(Cl)cccc3Cl)noc2C)c(OC)cc1Cl, COc1cc(NC(=O)c2sc(-c3ccc(Cl)cc3)cc2NC(=O)c2ccncc2)ccc1OCCN1CCCC1 is higher in IFI: 1.96% for the first, 10.7% for the second.

Going from Cn1cc(Br)c(-c2cccc(Nc3ccnc4cc(-c5nccs5)ccc34)c2)n1 to c1ccc(Cn2nnnc2-c2cccc(Nc3ccnc4cc(-c5nccs5)ccc34)c2)cc1, the IFI rises from 6.57% to 7.25%.

Going from Cc1cc(NCCc2ccccc2)nc(NC(=N)Nc2cccc(Cl)c2)n1 to OC(CNCCc1ccccc1)Cn1c2ccc(Cl)cc2c2cc(Cl)ccc21 (stereo not drawn), the IFI rises from 5.26% to 9.09%.

First: CCCN(CC1CC1)c1ncc(-c2cccc(CNCCC3CCCN3C)c2)cn1 (stereo not drawn)
Second: c1nc(CCNc2nc(Nc3ccc4c(c3)OCO4)nc(NC3CCCC3)n2)c[nH]1
The IFI of the first is higher: 12% for the first, 0.75% for the second.

First: CCCC(=O)Nc1ccc(OCCCCN(Cc2ccccc2C(F)(F)F)c2ccc(C(F)(F)F)c(C#N)c2)cc1
Second: O=[N+]([O-])c1ccc2c(c1)c1ccccc1n2Cc1ccccc1O
The IFI of the first is lower: -0% for the first, 5.98% for the second.

Compared with c1ccc(CCNc2nc(NCC(c3ccccc3)c3ccccc3)c3nc[nH]c3n2)cc1, O=c1cc(NCCCNC2CCCc3c2ccc2ccccc32)[nH]c2ccccc12 (stereo not drawn) is lower in IFI: 8.09% for the first, 2.96% for the second.

First: Cc1cccc(-c2cccc3c(NC(=O)N4CCc5cc6nccc(N7CCN8CCC[C@H]8C7)c6cc54)cccc23)n1
Second: Cn1c(NCc2cc(F)cc3c2OCOC3)nc2cc(Nc3ccnc(Nc4cccc(CS(C)(=O)=O)c4)n3)ccc21
The IFI of the first is higher: 5.59% for the first, 2.96% for the second.

Going from COc1ccc(CNc2cc(C)nc3sc4c(c23)CCC2(C4)OCCO2)cc1 to Cc1ccc(S(=O)(=O)c2nc(S(=O)(=O)c3ccccc3)sc2NCC2CCCO2)cc1 (stereo not drawn), the IFI rises from 0.73% to 4.65%.

Going from Cc1c[nH]c(CCNC(=O)c2cc(-c3ccc(Cl)cc3)cs2)n1 to Nc1ncc(-c2ccsc2)c2ccc(-c3ccc4cn[nH]c4c3)cc12, the IFI rises from 1.37% to 1.5%.

Going from Nc1nc(N)c2c(ccc3c2ccn3CCCCO)n1 to N=C(N)c1ccc(C=CC(=O)NCC(O)CNC(=O)C=Cc2ccc(C(=N)N)cc2)cc1 (stereo not drawn), the IFI rises from 1.37% to 2.94%.

Compared with COc1ccc2c(OC)ccc(CNCCCCCCNCc3ccc(OC)c4ccc(OC)cc34)c2c1, COc1ccc(/N=[N+](\[O-])c2ccccc2/[N+]([O-])=N/c2ccc(OC)cc2)cc1 is lower in IFI: 14.2% for the first, 0.7% for the second.
